Test results: PubChem BioAssay AID2546 (National Center for Advancing Translational Sciences (NCATS), 2010)
Hit rate of the full screen: of about 310,000 compounds, about 11,000 (3.5%) were called active. Inconclusive means that the source gave no clear call. Such entries were picked first, then a sample of the others. Calls follow the shape of the dose curve; as a rule, active = well fitted inhibition curve with a large enough effect; inconclusive = small, poorly fitted or top-dose-only effect, or effect the other way; inactive = flat fitted curve, though single readings scatter. Potencies of inconclusive entries are left out as doubtful fits.

Experiment: VP16 counterscreen qHTS for inhibitors of ROR gamma transcriptional activity;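 also: Gal4-VP16 expression switched on by copper sulfate through the metallothionein promoter; nearly all actives have a fitted effect of over 50% in size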
Settings: Drosophila S2 Gal4-VP16 UAS-luciferase, luminescence, 20 h; activity, negative = inhibition: at 53.6 µM (top of the series)
% is scaled to controls: 0 for no effect and ±100 for the full control effect; potency is read from the fitted curve at half-maximal effect; tags tell the direction and shape of the fitted curve.

Row | SMILES | Potency | activity, negative = inhibition
1 | CSC1=NC(C)(C)C=C(/C=C/c2ccc(Cl)cc2)N1 | inconclusive [inhibitor, partial curve] | –
2 | Cc1ccc(Cn2c(=O)n(C)c(=O)c3sccc32)cc1 | inconclusive [inhibitor, single point] | –
3 | Cc1cc(OCc2cc(C(=O)NCCN3CCCCC3CO)no2)cc(C)c1Cl (centres undefined) | inconclusive [inhibitor, single point] | –
4 | CC(NC(=S)Nc1ccccc1OC(F)F)C(C)(C)C (centres undefined) | inconclusive [inhibitor, single point] | –
5 | CC1c2[nH]c3ccccc3c2C[C@H]2C(=O)N(CCCN(C)C)CC(=O)N12 (some centres undefined) | inactive | –
6 | Cc1cccc(NC(=O)CN2C(=O)N/C(=C/c3ccc(-c4cccc(C(=O)O)c4C)o3)C2=O)c1 | – | inactive: -2.46% [at 10 µM]
7 | C/C(=N\NC(=O)c1nn(C)c(C)c1Br)c1ccc(NC(=O)c2ccoc2C)cc1 | inconclusive [inhibitor, single point] | –
8 | COc1ccc(-c2nnc(SCC(=O)Oc3ccc(C)cc3)o2)cc1 | inconclusive [inhibitor, single point] | –
9 | C=CCn1c(CCSCc2ccc(OC)c(C)c2)n[nH]c1=S | inactive | –
10 | CCNC(=S)N1CCN(S(=O)(=O)c2ccc(C)cc2)CC1 | inactive | –
11 | COc1cc2c(cc1NC(=O)COC(=O)C(CCSC)NC(=O)c1ccccc1Cl)oc1ccccc12 (centres undefined) | inconclusive [inhibitor, full curve] | –
12 | Cc1cc(-c2nnc(SCC(=O)Nc3cccc(Cl)c3)n2N)n[nH]1 | inconclusive [inhibitor, partial curve] | –
13 | COc1ccc(-n2ncc3c2CC(C)(C)CC3NC(=O)c2c(C)cc(=O)oc2C)cc1 (centres undefined) | inactive | –
14 | COc1ccc(-c2cn(-c3ccccc3)c(=S)[nH]2)cc1OC | active: 11.2 µM | –
15 | C/C(=N\Nc1cc(C(F)(F)F)ccc1Cl)c1ccccc1O | inconclusive [activator, single point] | –
16 | CCCCN(CC)Cc1ccc(CNC(=O)Nc2ccc(OCC)cc2)o1 | inactive | –
17 | O=C(Nc1cccc(S(=O)(=O)Nc2ccc(Cl)cc2)c1)c1ccc2c(c1)OCCO2 | active: 0.794 µM | –
18 | Oc1ccc(/C=N/Nc2ncc(Br)cn2)c(O)c1 | inconclusive [activator, single point] | –
19 | CCc1nnc(NC2=NCCC2)s1 | active: 17.8 µM | –
20 | CCOc1cc(-c2sc(Nc3ccccc3)n[n+]2C)ccc1OC | inconclusive [inhibitor, single point] | –
21 | CN(C)c1cccc(C(=O)Nc2cccc(F)c2)c1 | inconclusive [activator, partial curve] | –
22 | CCCCN(CCCC)c1nc2ccccc2nc1C(C#N)C(=O)NCCCOC (centres undefined) | inactive | –
23 | CN(Cc1cccc2cnccc12)C(=O)c1cc(COc2ccc(F)cc2Cl)on1 | inconclusive [inhibitor, single point] | –
24 | CCc1cccc(CC)c1NC(=S)NCc1ccc2c(c1)OCO2 | inconclusive [inhibitor, single point] | –
25 | Cc1ccc(C)c(NC(=S)N2CCN(S(=O)(=O)c3ccccc3)CC2)c1 | inconclusive [inhibitor, single point] | –
26 | COC(=O)c1cccc(COC(=O)c2cccnc2SC)c1 | inconclusive [inhibitor, partial curve] | –
27 | S=c1[nH]nc(-c2cc(-c3ccccc3)n[nH]2)n1/N=C/C(Br)=C/c1ccccc1 | inconclusive [inhibitor, single point] | –

Row | SMILES | Potency | activity, negative = inhibition
28 | CCCCOc1ccc(C(=O)N(Cc2ccco2)C2CCS(=O)(=O)C2)cc1 (centres undefined) | inactive | –
29 | Cc1ccc(Cn2c(Sc3nccc(C)n3)nc3c2c(=O)[nH]c(=O)n3C)cc1 | inactive | –
30 | CN(C(=S)NC(=O)Cc1ccccc1)c1ccccc1 | inconclusive [inhibitor, single point] | –
31 | COc1ccc2c(c1)Sc1ccccc1N2 | active: 6.31 µM | –
32 | COc1ccc(-c2nsc3c(N4CCN(S(=O)(=O)c5ccccc5F)CC4)ncnc23)cc1 | inactive | –
33 | C=CCN(C)CCCCCCOc1ccc(C(=O)c2ccc(Br)cc2)c(F)c1 | inconclusive [inhibitor, single point] | –
34 | CN1CCN(c2ncc3nc(-c4cc(F)cc(F)c4)c(=O)n(Cc4cccs4)c3n2)CC1 | inactive | –
35 | O=c1[nH]c2ccccc2nc1NCc1ccccc1 | inactive | –
36 | O=C(CO/N=C/c1ccc(OC(F)F)cc1)N1CCc2ccccc21 | inactive | –
37 | Cc1nc(N2CCOCC2)c2nc(-c3ccccc3)n(CCCN3CCOCC3)c2n1 | inactive | –
38 | Cc1ccc(-c2noc(CCCC(=O)Nc3cccnc3)n2)cc1 | active: 3.16 µM | –
39 | COc1cccc(/C=N/NC(N)=S)c1OCc1cccc(Cl)c1 | active: 3.98 µM | –
40 | CO/N=C(\Cn1ncc(NC2CCCCC2)c(Br)c1=O)c1ccc(Cl)cc1 | inactive | –
41 | O=C(CCS(=O)(=O)c1ccccc1)Nc1nc2cc3c(cc2s1)OCCO3 | inconclusive [inhibitor, full curve] | –
42 | COCCCNC(=O)c1ccc2c3c(onc13)-c1ccccc1C2=O | inconclusive [activator, full curve] | –
43 | O=c1[nH]c2ccccc2nc1C(Nc1ccccc1)c1ccccc1 (centres undefined) | inactive | –
44 | COc1cccc(NC(=O)CSc2nc3ccccc3c(=O)n2Cc2cccs2)c1 | inconclusive [activator, single point] | –
45 | CC(C)c1ncc([N+](=O)[O-])n1C | inactive | –
46 | COC(=O)CSc1nnc(-c2ccccc2O)n1-c1ccc(C)cc1 | inconclusive [inhibitor, single point] | –
47 | CCN(CC)C(=O)Oc1nnc(SC(C)C)n1-c1ccc(Cl)c(Cl)c1 | inactive | –
48 | N#C/C(=N\Nc1cccc(C(F)(F)F)c1)C(=O)c1ccsc1 | inconclusive [inhibitor, partial curve, poor fit] | –
49 | Cc1cccc(NC(=S)NCc2ccco2)n1 | active: 4.47 µM | –
50 | CN(C)c1ccc(N=Nc2ccc(S(N)(=O)=O)cc2)cc1 | inactive | –
51 | CCn1ncc(Br)c1C(=O)Nc1ccc(C(=O)OC(C)C)cc1 | inconclusive [inhibitor, single point] | –
52 | COc1ccc(-c2[nH]ncc2-c2ccc3c(c2)OCCO3)c(O)c1 | inconclusive [inhibitor, single point] | –
53 | CCC(=O)Nc1cccc(-c2nc3ccc(C)cc3o2)c1 | inconclusive [inhibitor, single point] | –
54 | CCCCOc1ncnc2c1[nH]c1ccccc12 | active: 10 µM | –

Row | SMILES | Potency | activity, negative = inhibition
55 | CCCCCn1nc(C)c(/C=N/NC(=O)c2ccoc2C)c1C | active: 8.91 µM | –
56 | Cc1nc2sc(-c3ccccc3)cc2c(=O)[nH]1 | inconclusive [inhibitor, partial curve] | –
57 | Cc1noc2ncnc(Sc3ccc(Br)cc3)c12 | active: 11.2 µM | –
58 | COc1ccc(CCNC(=O)CCNS(=O)(=O)c2cc(Br)cnc2N)cc1OC | inconclusive [inhibitor, single point] | –
59 | CCCc1cc(C(=O)N2CCCC(N3CCN(c4ccccc4C)CC3)C2)n(C)n1 (centres undefined) | inactive | –
60 | Cc1nc2cc(NC(=O)Nc3nccs3)ccc2n1C | active: 10 µM | –
61 | Cc1sc2ncnc(NCc3cccs3)c2c1C | active: 10 µM | –
62 | COc1ccccc1CN(Cc1cc2cc(C)ccc2[nH]c1=O)Cc1nnnn1CC1CCCO1 (centres undefined) | inconclusive [inhibitor, partial curve] | –
63 | CC(c1nccs1)N(C)C(=O)c1cn(Cc2cccc3ccccc23)nn1 (centres undefined) | inactive | –
64 | Cc1cccc(CSc2cccc3cccnc23)c1 | active: 7.94 µM | –
65 | COc1ccc(Cl)cc1NC(=O)CN(C)Cc1ccc(OC)c(OC)c1 | inconclusive [inhibitor, single point] | –
66 | Cc1ccc(-c2csc3nnc(SCC(=O)NCc4ccco4)n23)cc1 | inconclusive [activator, single point] | –
67 | O=C(N/N=C\c1ccccn1)C1c2ccccc2Oc2ccccc21 | inconclusive [inhibitor, single point] | –
68 | O=c1c2oc3ccccc3c2[nH]c(=S)n1-c1ccccc1 | active: 5.01 µM | –
69 | COc1ccc2c(c1)CC/C(=C\c1ccc(OC)c(Cn3cccn3)c1)C2=O | inactive | –
70 | COc1cc(Cl)c(S(=O)(=O)NCCCn2ccnc2)cc1Cl | inactive | –
71 | CCc1ccc(/C=C/C(=O)c2c(C)cc(C)[nH]c2=O)cc1 | inconclusive [inhibitor, single point] | –
72 | CCN1CCCC(OC(=O)c2cc(-c3ccccc3Cl)nc3ccccc23)C1 (centres undefined) | inactive | –
73 | O=C(Nc1nnc(SCc2ccccc2F)s1)C1=COCCO1 | inconclusive [activator, full curve, poor fit] | –
74 | COc1ccc(NC(=O)c2nc(S(=O)(=O)Cc3cccc(C)c3)ncc2Cl)c(OC)c1 | active: 7.94 µM | –
75 | N=C1S/C(=C\c2ccco2)C(=O)N1c1ccc2c(c1)OCO2 | inconclusive [activator, partial curve] | –
76 | CCc1nc2ccc(C(=O)O)cc2nc1CC | inconclusive [inhibitor, single point] | –
77 | N#Cc1cccc(S(=O)(=O)Nc2c(NC3CCCCC3)c3ccccc3oc2=O)c1 | inactive | –
78 | Cc1nn(Cc2ccc(Cl)cc2)c(Cl)c1/C=N/NC(=O)CNc1ccccc1F | inconclusive [inhibitor, single point] | –
79 | CCOc1ccc(NC(=O)C2CSC(c3ccncc3)=N2)cc1 (centres undefined) | inactive | –
